Measured values published in the CheMixHub viscosity set.
± gives the uncertainty stated by the source. Not every entry of the source has a single result; some have several. This is not the full list of results. The source may hold further records. Values given together are repeats (runs, samples, wells, individuals or studies). Marks in square brackets tell the records apart. The letters are not those of the source and start again with each entry.

Conditions: 303.15 K; 101 kPa

In the case of `c1ccncc1`, the viscosity is reported as 0.8478 ± 0.0076 mPa·s [study A] and 0.8354 ± 0.022 mPa·s [study B] and 0.821 ± 0.008 mPa·s [study C] and 0.821 ± 0.008 mPa·s [study D] and 0.8385 ± 0.012 mPa·s [study E] and 0.8355 ± 0.0085 mPa·s [study F] and 0.826 ± 0.022 mPa·s [study G].
